Laboratory results reported in article PMC6919601, “Identification of Plasmodium dipeptidyl aminopeptidase allosteric inhibitors by high throughput screening” (PLoS ONE, 2019).
The whole screen tested about 110,000 compounds, of which about 230 (0.21%) showed an effect of 50% or more. The list shows a part of the results.

target: DPAP1 (Plasmodium falciparum, UniProt Q8IIJ9); test: primary screen, percent inhibition; read by cleavage of a fluorogenic dipeptide substrate; higher = more effect of the substance; design: species or system P. falciparum D10 trophozoite lysates; single well
Sequence (Q8IIJ9 whole entry, looked up): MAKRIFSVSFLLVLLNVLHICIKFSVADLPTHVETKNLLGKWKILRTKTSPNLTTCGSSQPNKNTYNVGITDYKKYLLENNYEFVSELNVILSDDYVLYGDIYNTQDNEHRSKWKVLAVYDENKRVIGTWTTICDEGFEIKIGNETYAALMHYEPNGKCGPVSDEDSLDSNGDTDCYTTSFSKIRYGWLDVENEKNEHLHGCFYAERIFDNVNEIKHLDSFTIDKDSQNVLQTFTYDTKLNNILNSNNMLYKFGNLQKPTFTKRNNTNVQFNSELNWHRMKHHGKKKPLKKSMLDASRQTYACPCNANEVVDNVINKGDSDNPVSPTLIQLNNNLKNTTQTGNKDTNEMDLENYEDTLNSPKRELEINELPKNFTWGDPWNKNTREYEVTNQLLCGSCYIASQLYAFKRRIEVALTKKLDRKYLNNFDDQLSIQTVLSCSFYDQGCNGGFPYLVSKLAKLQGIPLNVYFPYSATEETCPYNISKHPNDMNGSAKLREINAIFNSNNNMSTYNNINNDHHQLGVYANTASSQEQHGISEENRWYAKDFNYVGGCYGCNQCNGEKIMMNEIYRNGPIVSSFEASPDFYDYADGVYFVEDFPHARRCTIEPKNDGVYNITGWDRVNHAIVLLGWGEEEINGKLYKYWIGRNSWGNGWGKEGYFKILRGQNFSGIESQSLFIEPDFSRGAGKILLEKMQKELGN
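Note: 30 min substrate incubation versus DMSO and 10 µM JCP410 controls.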

SMILES | % Inhibition @ 10 uM [%]
CCCSC1=C(C#N)C(c2ccccc2)C(C(=O)Nc2ccccc2OC)=C(C)N1 (centres unmarked) | -4.67
CCCN(CCO)Cc1ccc(Cl)c(Cl)c1 | 2.7
C=CCNc1sc(S(C)(=O)=O)nc1S(=O)(=O)c1ccc(C)cc1 | 8.55
COc1ccccc1N1CCN(S(=O)(=O)c2c(C(C)C)cc(C(C)C)cc2C(C)C)CC1 | 2.47
Cc1oc(-c2ccccc2Cl)nc1CSc1nc(O)c2c(n1)CCC2 | 2.04
COc1ccccc1OCCNC(=O)c1ccc(Br)cc1 | -1.52
CCc1nnc(NC(=O)C2Cc3ccc(C)cc3C(=O)O2)s1 (centres unmarked) | 0.221
COc1ccc2c(Sc3ccc(Cl)cc3)c(C(=O)N3CCOCC3)[nH]c2c1 | -2.45
c1nc(N2CCC3(CC2)OCCO3)c2nc[nH]c2n1 | 0.287
C=CCc1cc(/C=C2/NC(=O)N(Cc3ccc(F)cc3)C2=O)cc(OC)c1O | -1.57
Cc1ccc2[nH]c3c(c2c1)CCCC3C(N)=O (centres unmarked) | -3.14
CCOC(=O)c1c(C)[nH]c(C)c1S(=O)(=O)N(C)CC(=O)N1CC=C(c2ccccc2)CC1 | -8.46
CN(CCCNC(=O)C1CCN(c2nnc(N3CCCC3=O)s2)CC1)C1CCCCC1 | -6.58
Clc1cccc(-c2nnn3c2nc(NCC2CCCO2)c2ccccc23)c1 (centres unmarked) | -6.52
COc1ccc(CC(=O)Nc2ccccc2C(N)=O)cc1 | -7
CNC(=O)/C(C#N)=C/c1c(Oc2ccccc2OC)nc2c(C)cccn2c1=O | -9.06
c1ccc(NCc2csc3ccccc23)cc1 | -4.4
CC(=O)Nc1ccc(NC(=O)c2sc3cccc(Cl)c3c2Cl)cc1 | 0.746
O=C(NCc1ccccc1)C1CC(c2ccc(F)cc2)=NO1 (centres unmarked) | 2.85
CSC1=C(C#N)C2(CCCCC2)C(C(=O)Nc2ccccc2)=C(C)N1 | 3.9
COC(=O)/C(=C/c1ccc(F)cc1)NC(=O)c1ccccc1 | 0.685
Cn1c(S(C)(=O)=O)nc2ccccc21 | -3.14
CCN(CC)CCn1c2ccccc2n2cc(-c3ccc(-c4ccccc4)cc3)nc12 | -0.436
N#CC1=C(N)SC(N)=C(C#N)C1c1cccs1 | 40.6
CCCCc1nc2ccccc2c(C(=O)O)c1C | -2.15

SMILES | % Inhibition @ 10 uM [%]
COc1cc(C(=O)Nc2nc3ccc4ccccc4c3s2)cc(OC)c1OC | 2.79
Cc1cccc(NC(=O)c2cc3c(=O)n4cccc(C)c4nc3n2C)c1 | 0.214
CCOC(=O)C1=CN(Cc2ccc(F)cc2)C=C(C(=O)OCC)C1c1cccc(OCC)c1 | -5.05
Cc1ccc(C(=O)CC2(O)C(=O)Nc3ccccc32)c(C)c1 (centres unmarked) | -2.03
Cc1ccc2c(Cl)c(C(=O)NC3CC3)sc2c1 | 2.36
COc1cc(/C=C/C(O)=C2\C(=O)Oc3ccccc3C2=O)cc(OC)c1OC | 3.47
C=Cc1ccc(Cn2c(C(=O)O)c(CNCc3cccc(OC)c3)c3ccc(C)cc32)cc1 | 9.35
CCOc1ccccc1NC(=O)CSCc1ccc(Cl)cc1 | 2.15
CC(C)CCNC(=O)c1nnc(-c2ccccc2)o1 | -3.34
Cc1cc(-c2ccc(C)c(S(=O)(=O)N3CCCCCC3)c2)on1 | -1.16
Cc1ccc(NC(=O)c2ccc3ccccc3c2)c(Br)c1 | 3.44
O=C(NCc1ccc(-n2cccc2)cc1)c1cc2ccccc2oc1=O | 1.32
CCSc1nc2c(c(=O)n1-c1ccc(C)cc1)C1(CCCC1)Cc1ccccc1-2 | -5.62
CCOc1ccc(C2C(C(=O)c3ccc(C)cc3)=C(C(=O)OC)Nc3nnnn32)cc1 (centres unmarked) | -4.84
COc1ccc2[nH]c3c(=O)n(CCCC(=O)NCc4ccccn4)c(=S)[nH]c3c2c1 | -3.95
Cc1oc2c(C)c3oc(=O)c(CCC(=O)N4CCOCC4)c(C)c3cc2c1C | -4.39
COCCNC(=O)C1Sc2nnc(C)n2NC1c1ccc(OC)cc1 (centres unmarked) | -3.76
Cc1ccc(S(=O)(=O)N2CCC(C(=O)Nc3nnc(C(C)C)s3)CC2)cc1 | 3.88
COc1cc(C2C(C#N)=C(N)Oc3[nH]nc(C)c32)cc(Br)c1OCc1cccc(C)c1 (centres unmarked) | 3.62
CC(=O)N1C(O)CCN1c1ccccc1 (centres unmarked) | 0.968
O=C(c1ccc(CS(=O)c2ccccc2Cl)o1)N1CCN(C2CCCCC2)CC1 (centres unmarked) | 3.1
CCc1nc2cccnc2n1-c1ccc(C(=O)N2CCOCC2)cc1 | 1.48
COc1cc(NC(=O)c2ccc(C)cc2)c(OC)cc1Cl | 27.1
CC(=O)c1ccc(OCCOc2ccc(C(C)=O)cc2)cc1 | -6.82
Oc1ncnc2nc3n(c12)CCCCC3 | -2.42
